Data taken from PubChem BioAssay AID485344 (National Center for Advancing Translational Sciences (NCATS), 2010).
About 6,900 (2%) of roughly 340,000 compounds were called active. No stated cut-off is given here; in the data, active means inhibition above about 30%; inactive means below that, where a call was filed. The entries are a selection whose mix differs from that of the whole data set. The source gives no active or inactive call for entries shown without one.

target: D(2) dopamine receptor (Homo sapiens) (UniProt P14416); experiment: HTS Assay for Allosteric Antagonists of the Human D2 Dopamine Receptor: Primary Screen for Antagonists; conditions: HEK293 TREx D2 cells, calcium flux, dopamine EC80; at 10 µM; stronger effect = higher value; further: 0% is about no effect
UniProt P14416, sequence (P14416 whole entry, looked up): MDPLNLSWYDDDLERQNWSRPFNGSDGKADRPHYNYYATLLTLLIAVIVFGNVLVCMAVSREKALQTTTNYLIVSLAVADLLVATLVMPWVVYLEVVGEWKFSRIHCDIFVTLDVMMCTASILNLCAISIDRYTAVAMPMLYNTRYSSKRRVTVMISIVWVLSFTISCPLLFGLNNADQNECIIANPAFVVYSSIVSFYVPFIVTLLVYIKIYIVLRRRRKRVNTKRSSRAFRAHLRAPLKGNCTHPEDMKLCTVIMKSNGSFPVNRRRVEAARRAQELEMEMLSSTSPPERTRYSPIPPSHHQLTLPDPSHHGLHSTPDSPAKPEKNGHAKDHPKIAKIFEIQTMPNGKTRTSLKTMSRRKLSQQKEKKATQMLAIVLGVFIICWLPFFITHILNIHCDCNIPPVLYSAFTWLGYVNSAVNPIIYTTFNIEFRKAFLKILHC
Method in brief: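 Calcium mobilization kinetics were recorded at 1 s intervals in tetracycline-induced HEK293 T-REx D2 cells, first for 180 s after compound addition and then 180 s after EC80 dopamine.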

Row | SMILES | inhibition
1 | CCN(CC)CCNC(=O)CSc1nc2nc(C)c(Cc3ccccc3)c(C)n2n1 | -2.08%
2 | CCOc1ccccc1NC(=O)CCn1cnnn1 | 10.2%
3 | Cc1[nH]c2ccccc2c1C(c1ccccc1)c1ccc(Cl)s1 (stereo not given) | -8.59%
4 | COc1cccc(CNC(=O)Cc2ccc(NC(=O)N3CCSc4ncccc43)cc2)c1OC | -0.085%
5 | COc1cccc(NS(=O)(=O)c2ccc3c(c2)[C@H]2C=CC[C@H]2[C@@H](c2ccccc2Cl)N3)c1 | 13.8%
6 | Clc1ccc(OCCCN2CCc3ccccc3C2)c(Br)c1 | active: 63.9%
7 | Cc1cccc(N2CCN(C(=O)C3CCCN(S(=O)(=O)c4ccc(Br)s4)C3)CC2)c1C (stereo not given) | -4.56%
8 | CCOC(=O)C1CCC(CN(Cc2ccc(Cl)cc2)S(=O)(=O)c2cc(Cl)cc(Cl)c2)CC1 (stereo not given) | 1.45%
9 | Cc1ccc2scc(N3CCC(C)CC3)c(=O)c2c1 | 12.9%
10 | Cc1cccc(N2CCN(C(=O)CN3C(=O)COc4ccc(S(=O)(=O)N5CCC(C)CC5)cc43)CC2C)c1 (stereo not given) | -1.37%
11 | CC(C)c1nc2ccc(C(=O)NCCCN3CCN(c4cccc(Cl)c4)CC3)cc2o1 | 1.93%
12 | CCOC(=O)N1CCN(Cc2nc3cc([N+](=O)[O-])ccc3n2C(C)C)CC1 | 9.57%
13 | CCOc1ccc(CCNC(=O)c2nc(-c3cccc(F)c3)n3c2CCCCC3)cc1OCC | 7.03%
14 | CCOc1ccc(CNC(=O)c2cnc3sc(N4CCOCC4)nn3c2=O)cc1OC | 10.7%
15 | COc1ccc(-c2nc3cc(C)ccn3c2NC(=O)c2ccc(F)cc2)cc1 | 10.5%
16 | NS(=O)(=O)c1ccc(CCNC(=O)c2ccc3nc(CCc4ccccc4)oc3c2)cc1 | 18.6%
17 | Cc1cc2c(cc1S(=O)(=O)N(C)CC(=O)Nc1ccc(C#N)cc1)OCC(=O)N2 | -19.9%
18 | Cn1c(=O)c2c(SCC(=O)NCc3ccco3)nc(-c3cccc(F)c3)nc2n(C)c1=O | 0.379%
19 | Cc1ccc(S(=O)(=O)c2cn(CC(=O)Nc3ccccc3C)c3cc4c(cc3c2=O)OCO4)cc1 | 19.3%
20 | CCOc1ccc(CC(=O)Nc2c(C(=O)Nc3ccc(OC)cc3OC)oc3ccccc23)cc1 | -1.39%
21 | Cc1sc2nc(CSc3ccccc3)nc(N3CCN(C)CC3)c2c1C | active: 89.9%
22 | CCOC(=O)c1c(S(=O)(=O)N2CCCC(C(=O)Nc3cccc(C#N)c3)C2)c(C)n(C)c1C (stereo not given) | 12.1%
23 | Cc1ccccc1CNC(=O)c1cccc(NC(=O)N2CCSc3ncccc32)c1 | -1.46%
24 | CC(Oc1ccccc1)C(=O)Nc1ccc(OCc2cc(=O)n3ccsc3n2)cc1 (stereo not given) | -5.57%

Row | SMILES | inhibition
25 | Cc1ccc(Cl)cc1NC(=O)C1CCCN(S(=O)(=O)c2cccc3cccnc23)C1 (stereo not given) | -15.2%
26 | Cc1ccccc1NC(=O)c1c(NC(=O)c2ccco2)sc2c1CCC(C(C)(C)C)C2 (stereo not given) | 2.48%
27 | CCC(=O)N1CCc2cc(Br)cc(S(=O)(=O)N3CCCC(C(=O)Nc4cccc(C)c4C)C3)c21 (stereo not given) | -18.8%
28 | COc1ccc(N2C(=O)CS(=O)(=O)C23C(=O)N(Cc2ccc(F)cc2)c2ccc(C)cc23)cc1 (stereo not given) | -6.73%
29 | COc1ccccc1CNC(=O)CSc1nc2nc(C)c(Cc3ccccc3Cl)c(C)n2n1 | 2.1%
30 | COc1ccc(CCNC(=O)c2cccc(-n3cnc4cccnc43)c2C)cc1OC | 0.0073%
31 | CC(CNC(=O)CN1C(=O)COc2ccc(S(=O)(=O)N3CCCCCC3)cc21)c1ccccc1 (stereo not given) | -5.5%
32 | CCCCNC(=O)c1nn(-c2ccc(C)cc2)c(=O)n(C)c1=O | 3.08%
33 | COc1cc(NC(=O)CSc2nc3nc(C)c(Cc4ccccc4)c(C)n3n2)cc(OC)c1 | 11.4%
34 | COc1ccc(C2OC[C@H]3O[C@H](O)[C@H](NC(C)=O)[C@@H](O)[C@@H]3O2)cc1 (stereo not given in full) | active: 52.9%
35 | CCOc1ccc2nc(N3CCCC(C(=O)NCCc4ccc(SC)cc4)C3)sc2c1 (stereo not given) | -6.05%
36 | CCOc1cc(CN2CCN(C(=O)c3ccco3)CC2)ccc1OC | active: 74.3%
37 | CCN(c1ccc(C)cc1C)S(=O)(=O)c1nnc(NC(=O)CC(C)C)s1 | 1.09%
38 | Cc1ccc(CNC(=O)c2ccc3c(c2)N(Cc2cccc(Cl)c2)C(=O)CS3)cc1 | 10.8%
39 | Cc1cc(O)c(C(=O)c2cnc3c(c2)COc2ccccc2-3)cc1Cl | 0.868%
40 | Cc1ccc(Cl)cc1NC(=O)Cn1c(=O)n(CCC(=O)N2CCc3ccccc3C2)c(=O)c2ccccc21 | 0.0285%
41 | CCOc1ccc(NC(=O)Cn2cc(C(=O)c3ccc(C)c(C)c3)c(=O)c3cc(F)ccc32)cc1 | -1.71%
42 | COc1cccc(CNC(=O)Cn2c(=O)oc3cc(S(=O)(=O)N4CCC(C)CC4)ccc32)c1 | 6.62%
43 | Cc1ccc(-n2nc3c(=O)n(C(C)C(=O)O)nc(C)c3c2C)cc1 (stereo not given) | 3.48%
44 | COc1ccc(Cn2c(C(=O)O)c(CNCCc3ccccc3Cl)c3ccc(C)cc32)cc1 | -2.92%
45 | CCC(=O)N1CCc2cc(S(=O)(=O)CCC(=O)NCc3ccc(F)cc3)ccc21 | 14.5%
46 | Cc1ccc(NC(=O)C2CCCN(c3nnc(C)c4c(C)n(-c5ccccc5)nc34)C2)cc1Cl (stereo not given) | -16.6%
47 | CCOC(=O)c1cc2c(=O)n3ccccc3nc2n(Cc2ccco2)c1=NC(=O)c1ccccc1OC | 3.27%
48 | Cc1c2cnn(CC(=O)Nc3ccc(F)cc3F)c(=O)c2c(C)n1Cc1cccc(Cl)c1 | -3.22%

Row | SMILES | inhibition
49 | O=C(Cn1c(=O)n(-c2ccc(F)cc2)c(=O)c2sccc21)Nc1cccc(C(F)(F)F)c1 | 12.9%
50 | Cc1cc(C)cc(OCC(=O)Nc2cccc(-c3nc4ccccc4[nH]3)c2)c1 | -2.39%
51 | COc1cc(C(=O)NCCC2=CCCCC2)ccc1OCc1c(C)noc1C | active: 31.6%
52 | COc1ccc(-n2nc3c(c2NC(=O)C(=O)N2CCN(C)CC2)CSC3)cc1 | 23.4%
53 | COc1ccc(CCC(C)N2CCc3ccccc3C2)cc1 (stereo not given) | active: 55%
54 | O=C(Nc1ccccc1C(F)(F)F)c1noc2c1CCCCC2 | -6.88%
55 | CC(=O)c1ccc(NC(=O)C2CCCN(S(=O)(=O)c3cn(C)cn3)C2)cc1 (stereo not given) | 16.7%
56 | CCc1cccc(C)c1Nc1c(-c2ccc(N3CCOCC3)cc2)nc2ncccn12 | 2.85%
57 | CCc1ccc(N2C(=O)CS(=O)(=O)C23C(=O)N(Cc2ccccc2)c2ccccc23)cc1 (stereo not given) | 4.55%
58 | COc1cc(-c2noc(-c3nnn(-c4ccc(Cl)cc4)c3C)n2)cc(OC)c1OC | 12.8%
59 | Cc1ccc(-n2nc(CO)c(C(=O)NCCc3ccccc3)n2)cc1C | -10.7%
60 | Cc1ccc(OCCCCN2CCCCC2)c(Br)c1 | active: 73.5%
61 | CCOCCCNCc1ccc(OCCC(C)C)c(OC)c1 | active: 35.3%
62 | Cc1c(CNC(C)c2ccccc2)c(C(=O)O)c(C)n1Cc1c(F)cccc1Cl (stereo not given) | 1.34%
63 | CCOC(=O)C1CCCN(C(=O)c2cc3c(=O)n(C)c4ccccc4c3s2)C1 (stereo not given) | -19.9%
64 | COc1ccc(CCC(=O)NNC(=O)Nc2cc(Cl)ccc2C)cc1 | active: 33%
65 | O=S(=O)(NCc1ccccc1)c1ccc2[nH]c3c(c2c1)CCCCC3 | 5.27%
66 | Cc1cc(NS(=O)(=O)c2ccc(NC(=O)COc3c(C)cc(Br)cc3C)cc2)no1 | -19.4%
67 | COc1cccc(NS(=O)(=O)c2ccc3[nH]cc(C(=O)NC4CCCCC4)c(=O)c3c2)c1 | 12.1%
68 | Cc1ccc(SCC(=O)Nc2cccc(-c3nc4cc(Cl)ccc4o3)c2C)cc1 | -27.2%
69 | CCn1cc2nc(SCc3cccc(OC)c3)n(Cc3ccc(Cl)cc3)c(=O)c2n1 | 17%
70 | COc1ccc2c(c1)C(C)CC(C)(C)N2C(=O)Nc1ccccc1 (stereo not given) | active: 54%
71 | CCCOc1ccc(CNC(=O)C2CCN(c3nc4ccccc4nc3C(F)(F)F)CC2)cc1 | 7.18%
72 | COC(=O)c1cc2sccc2n1Cc1ccccc1 | 13.8%

Row | SMILES | inhibition
73 | O=C(CCC1N=C2c3ccccc3N=C(SCc3cccc(F)c3)N2C1=O)NC1CCCCC1 (stereo not given) | 26.3%
74 | CC1=C(C(=O)Nc2ccccc2Cl)C(c2cccs2)n2ncnc2N1 (stereo not given) | -7.39%
75 | COc1ccccc1CCNC(=O)c1cc2ccccn2n1 | 2.48%
76 | COCCCNC(=O)c1c(NC(=O)c2cc(=O)c3cc(C)c(C)cc3o2)sc2c1CCCC2 | 15.4%
77 | CCCN1C(=O)CN(C2CCCCCC2)C(=O)C1c1ccc(OCC)c(OC)c1 (stereo not given) | -7.15%
78 | Cc1cc(=O)n2nc(N3CCCC(C(=O)NCc4ccco4)C3)sc2n1 (stereo not given) | active: 36.3%
79 | CCCCNc1cc(NC2CCCCC2)c2c3c(onc13)-c1ccccc1C2=O | 7.22%
80 | O=C(NC1CC(=O)N(c2cccc(F)c2)C1)C1CCCCC1 (stereo not given) | -16.5%
81 | COc1ccccc1CCNC(=O)Cc1c(C)c2c(cc(C)c3c(C)coc32)oc1=O | 6.87%
82 | COc1ccc(N2C(=O)C(CC(=O)Nc3ccc(F)cc3)N(CCC3=CCCCC3)C2=O)cc1 (stereo not given) | -5.7%
83 | CN(C(=O)Nc1cn(C)c(=O)c2ccccc12)c1ccccc1 | -3.49%
84 | COc1ccc(Cl)cc1NC(=O)CN1c2ccccc2S(=O)(=O)c2ccccc21 | 3.03%
85 | O=C(CSC1=Nc2ccccc2N=C(c2ccc(F)cc2)C1)Nc1cc(F)ccc1F | -0.899%
86 | COc1ccc(OC)c(NC(=O)C2CCCN(S(=O)(=O)c3c(C)noc3C)C2)c1 (stereo not given) | active: 43.7%
87 | CCC(Cn1nnc2ccccc2c1=O)NC(=O)Nc1cccc(Cl)c1 (stereo not given) | 7.62%
88 | COc1ccc(-c2[nH]ncc2C(=O)NCc2ccc(F)cc2)cc1 | 12.1%
89 | Cc1ccc(C(=O)N2CCN(c3ccccc3F)CC2)cc1NC(=O)c1nsc2ccccc12 | -0.492%
90 | O=[N+]([O-])c1cccc(CN2CCN(c3cccc4[nH]ccc34)CC2)c1 | active: 42.1%
91 | CCc1cccc(NC(=O)Cn2c(=O)n(CC3CCC(C(=O)NCCc4ccccc4)CC3)c(=O)c3ccccc32)c1 (stereo not given) | -10.1%
92 | O=C(NCc1ccc(F)cc1)C1CCN(C(=O)c2cnn(-c3ccccc3)c2-n2cccc2)CC1 | 5%
93 | O=C(Nc1ccccc1C(=O)O)c1cccc(S(=O)(=O)N2CCCC2)c1 | -17.4%
94 | COCCNC(=O)CN1C(=O)COc2ccc(Cl)cc21 | active: 34.7%
95 | Nc1ccc(C#Cc2ccc3c(=O)c4ccccc4oc3c2)cc1 | active: 41.3%
